Read-outs that look alike come from different tables or passages of the source.

Series [1] in a line: Cytotoxicity of compounds and their P450-generated metabolites, Hep3B DataChip stamped with MetaChip. To be noted: human. On the procedure: (§1) The cytotoxicity of drugs (or drug metabolites) was determined by staining the slide containing the cells with a Live/Dead test kit (Molecular Probes) that produces a green fluorescent response from living cells. At the end of the 3-day culture period post stamping, the three-dimensional cell chip (DataChip) was rinsed three times in PBS for 5 min each. One mL of a dye solution containing 0.5 μM calcein AM was applied to each three-dimensional cell chip using a glass slide with 1 mm thick perimeter gasket acting as a barrier to prevent loss of the dye solution.
(§2) Following incubation for 50 minutes at room temperature, excess dye in the collagen-gel drops was removed by incubating the slides in a petri dish containing 16 mL of PBS for 30 min on a gyratory shaker at 60 rpm. The three-dimensional cell chip was dried thoroughly with nitrogen. The three-dimensional cell chip was scanned with the GenePix® Professional 4200A scanner equipped with blue laser and standard blue filter to determine the green fluorescent intensity and was quantified from the scanning image using GenePix Pro 6.0 (Molecular Devices Co.).
(§3) Percent live cells=(FReaction/FMax)×100
(§4) where FReaction is the green fluorescence intensity of the reaction spot and FMax is the green fluorescence intensity of untreated fully viable cells.
(§5) For efficient stamping, MTMOS-coated glass slides were prepared to contain a sol-gel barrier on the periphery of the slides.
(§6) To this end […] of methyltrimethoxysilane (MTMOS) sol was prepared by mixing 2 mL of MTMOS with 1 mL of HCl (10 mM) and sonicated for 10 min. The sol was spotted on the periphery of the MTMOS-coated slide and then the slide was baked in an oven for 30 min at 120° C.
(§7) The MetaChip was stored at −80° C. for 1 day prior to use. Cytotoxicity studies were performed by spotting 20 nL of test compound in distilled water (0-2 mM) onto the MetaChip spots and partially dried.
(§8) This was followed by stamping of the three-dimensional cell chip (DataChip) containing either MCF7 or Hep3B cells onto the MetaChip.
(§9) To this end, a MetaChip consisting of 20×54 alginate spots was prepared; each spot containing a single human P450 isoform (CYP1A2, CYP2D6, or CYP3A4), a mixture of the three isoforms, or no P450 as a test compound only control. Addition of test compounds was carried out by overlay spotting of solutions of these compounds onto the MetaChip, which was then stamped on top of the DataChip.
(§10) Using three DataChips in combination with three MetaChips, IC50 values for 27 compounds and their P450-generated metabolites against human Hep3B cells were determined. […] The three P450 isoforms were used along with an equimolar mixture of the three isoforms and a test compound only control without P450. The test compounds were added to the MetaChip, which was then stamped onto the DataChip and incubated for 6 h. This was followed by removing the DataChip, rinsing with growth medium, incubating in media for 3 days, and then stained for cell viability.

The subject of another series is human Hep3B cells. The description is as above. On the procedure:
as §1, §2, §3, §4, §5, §6, §7, §8, §9, §10

Series [2] relates to MCF7 human breast cancer cells. The experiment in a line: cells. The conditions noted are these: MCF7, read-out: IC50 evaluated on the DataChip. On the procedure:
as §1

Series [3] concerns Hep3B human hepatoma cells. Nature of the series: cells. To be noted: read-out: Calculated IC50, Alginate DataChip (Hep3B). The protocol:
as §1, §2, §3, §4
(§11) The alginate-containing three-dimensional cell chip (DataChip) was prepared as follows. […]

Series [4] concerns MCF7 cells. Nature of the series: cells. The conditions noted are these: Homo sapiens, MCF7, read-out: Calculated IC50, Alginate DataChip (MCF7). On the procedure: as §1, §2, §3, §4, §11
In series [5] the test system is MCF7 cells. Nature of the series: cells. To be noted: Homo sapiens.
For series [6], the system named is MCF7 cells. Nature of the series: cells. To be noted: Homo sapiens. This is another data set of the same source.
For series [7], the system named is MCF7 cells. To be noted: read-out: IC50, 2D literature values; 2D cultures in 96-well plates, Refs 1-5; cited from earlier work.
Setting [8] is: IC50, CYP1A2, Hep3B DataChip, MetaChip spots with CYP1A2.
Where [9] appears, read: IC50, CYP2D6, Hep3B DataChip, MetaChip spots with CYP2D6.
Where [10] appears, read: IC50, CYP3A4, Hep3B DataChip, MetaChip spots with CYP3A4.
Setting [11] is: IC50, Mixture, Hep3B DataChip, equimolar mixture of CYP1A2, CYP2D6, CYP3A4.
Where [12] appears, read: IC50, No P450, Hep3B DataChip, test compound only control without P450.

In general, IC50 refers to the midpoint of a concentration-inhibition curve. Regarding `Cc1ccccc1C(OCCN(C)C)c1ccccc1` (stereo not drawn) [Orphenadrine], the IC50 at 6 h in series [1] (setting [8]) is 179 ± 19.4 µM; in series [1] (setting [9]), 169 ± 27.8 µM; in series [1] (setting [10]), 116 ± 16.3 µM; in series [1] (setting [11]), 83.8 ± 17.2 µM; in series [1] (setting [12]), 20.5 ± 3.5 µM. Moreover, the “Activation or deactivation of the toxic response by CYP1A2” value in the series with human Hep3B cells is on record as “moderately to weakly deactivated”. In addition, the “Activation or deactivation of the toxic response by CYP2D6” value in the series on human Hep3B cells is reported as “deactivating”.

Consider `CC(C)NCC(O)COc1cccc2ccccc12` (stereo not drawn) [Propranolol], for which the IC50 at 6 h was 69.4 ± 10.6 µM in series [1] (setting [8]); 74.6 ± 9.02 µM in series [1] (setting [9]); 86 ± 13.1 µM in series [1] (setting [10]); 86.1 ± 11.2 µM in series [1] (setting [11]); 95.9 ± 13.6 µM in series [1] (setting [12]).

Consider `CC/C(=C(\c1ccccc1)c1ccc(OCCN(C)C)cc1)c1ccccc1` [Tamoxifen, tamoxifen], for which the IC50 in series [2] is 31.2 ± 0.8 µM; in series [3], 19.9 ± 7.7 µM; in the series on MCF7 cells [4] it was 13.3 ± 4.8 µM; in the series on MCF7 cells [5] (MCF7, read-out: Calculated IC50, 2D 96-well plate), 4.44 ± 0.32 µM; in the series on MCF7 cells [5] (MCF7, read-out: IC50 from 2D control in the 96-well plate), 8.5 ± 0.2 µM; in the series with MCF7 cells [6] (MCF7, read-out: Calculated IC50, 3D 96-well plate), 17.3 ± 3.2 µM. The IC50 was 28.8 ± 0.2 µM with MCF7 cells [6] (MCF7, read-out: IC50 from 3D control) and 1 to 8 µM in the series on MCF7 cells [7]. Besides, the IC50 at 6 h stood at 113 ± 30.2 µM in series [1] (setting [8]); 28.4 ± 2.86 µM in series [1] (setting [9]); 398 ± 155 µM in series [1] (setting [10]); 63.8 ± 15 µM in series [1] (setting [11]); 83 ± 12.8 µM in series [1] (setting [12]).

Regarding `CSc1ccc2c(c1)N(CCC1CCCCN1C)c1ccccc1S2` (stereo not drawn) [Thioridazine], the IC50 at 6 h was found to be 13.6 ± 1.08 µM in series [1] (setting [8]); 18.8 ± 1.22 µM in series [1] (setting [9]); 46.6 ± 3.96 µM in series [1] (setting [10]); 35.4 ± 3.18 µM in series [1] (setting [11]); 31.6 ± 31.6 µM in series [1] (setting [12]).

The record behind these values is patent publication US20090221441A1, “THREE-DIMENSIONAL CELLULAR ARRAY CHIP AND PLATFORM FOR TOXICOLOGY ASSAYS” (Rensselaer Polytechnic Institute, priority 2005, published 2009).
